# From the supplement of paper PMC8728848
# The other results are listed elsewhere or left out.
# What was measured:
# Assay in all cases: glycan array binding signal (z-score within array); higher = stronger binding
# Settings in all cases: glycan notation: IUPAC condensed, linker removed
# Fuc(a1-2)Gal = target: Fuc(a1-2)Gal
# How it was run: (§1)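 The binding signal is a Z-score computed within each array. Data were drawn from 3228 arrays in the Consortium for Functional Glycomics database, restricted to those with a known protein sequence. Scores were averaged over arrays of the same protein sequence at different concentrations or buffers, and over linkers, and negative values can be taken as non-binding.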
# Fuc(a1-2)Gal(b1-3)GalNAc = target: Fuc(a1-2)Gal(b1-3)GalNAc
# How it was run: as §1
# [1] = target: Fuc(a1-2)Gal(b1-3)GalNAc(a1-3)[Fuc(a1-2)]Gal(b1-4)Glc
# How it was run: as §1
# [2] = target: Fuc(a1-2)Gal(b1-3)GalNAc(a1-3)[Fuc(a1-2)]Gal(b1-4)GlcNAc
# How it was run: as §1
# [3] = target: Fuc(a1-2)Gal(b1-3)GalNAc(b1-3)Gal
# How it was run: as §1
# [4] = target: Fuc(a1-2)Gal(b1-3)GalNAc(b1-3)Gal(a1-4)Gal(b1-4)Glc
# How it was run: as §1
# [5] = target: Fuc(a1-2)Gal(b1-3)GalNAc(b1-4)[Neu5Ac(a2-3)]Gal(b1-4)Glc
# How it was run: as §1
# Fuc(a1-2)Gal(b1-3)GlcNAc = target: Fuc(a1-2)Gal(b1-3)GlcNAc
# How it was run: as §1
# [6] = target: Fuc(a1-2)Gal(b1-3)GlcNAc(b1-2)Man(a1-3)[Fuc(a1-2)Gal(b1-3)GlcNAc(b1-2)Man(a1-6)]Man(b1-4)GlcNAc(b1-4)GlcNAc
# How it was run: as §1
# [7] = target: Fuc(a1-2)Gal(b1-3)GlcNAc(b1-2)Man(a1-3)[Fuc(a1-2)Gal(b1-3)GlcNAc(b1-2)Man(a1-6)]Man(b1-4)GlcNAc(b1-4)[Fuc(a1-6)]GlcNAc
# How it was run: as §1
# [8] = target: Fuc(a1-2)Gal(b1-3)GlcNAc(b1-3)Gal(b1-4)Glc
# How it was run: as §1
# [9] = target: Fuc(a1-2)Gal(b1-3)GlcNAc(b1-3)GalNAc
# How it was run: as §1
# [10] = target: Fuc(a1-2)Gal(b1-3)GlcNAc(b1-3)[Fuc(a1-2)Gal(b1-3)GlcNAc(b1-6)]GalNAc
# How it was run: as §1
# [11] = target: Fuc(a1-2)Gal(b1-3)GlcNAc(b1-3)[Gal(b1-4)GlcNAc(b1-6)]Gal(b1-4)Glc
# How it was run: as §1
# [12] = target: Fuc(a1-2)Gal(b1-3)GlcNAc(b1-3)[Neu5Ac(a2-6)Gal(b1-4)GlcNAc(b1-6)]Gal(b1-4)Glc
# How it was run: as §1
# [13] = target: Fuc(a1-2)Gal(b1-3)GlcNAc6S
# How it was run: as §1
# [14] = target: Fuc(a1-2)Gal(b1-3)[Fuc(a1-4)]GlcNAc
# How it was run: as §1
# [15] = target: Fuc(a1-2)Gal(b1-3)[Fuc(a1-4)]GlcNAc(b1-2)Man(a1-3)[Fuc(a1-2)Gal(b1-3)[Fuc(a1-4)]GlcNAc(b1-2)Man(a1-3)]Man(b1-4)GlcNAc(b1-4)GlcNAc
# How it was run: as §1
# [16] = target: Fuc(a1-2)Gal(b1-3)[Fuc(a1-4)]GlcNAc(b1-2)Man(a1-3)[Fuc(a1-2)Gal(b1-3)[Fuc(a1-4)]GlcNAc(b1-2)Man(a1-6)]Man(b1-4)GlcNAc(b1-4)[Fuc(a1-6)]GlcNAc(b1-4)[Fuc(a1-6)]GlcNAc
# How it was run: as §1
# [17] = target: Fuc(a1-2)Gal(b1-3)[Fuc(a1-4)]GlcNAc(b1-3)[Fuc(a1-3)[Gal(b1-4)]GlcNAc(b1-6)]Gal(b1-4)Glc
# How it was run: as §1
# [18] = target: Fuc(a1-2)Gal(b1-3)[Fuc(a1-4)]GlcNAc(b1-3)[Gal(b1-4)GlcNAc(b1-6)]Gal(b1-4)Glc
# How it was run: as §1
# Fuc(a1-2)Gal(b1-4)Glc = target: Fuc(a1-2)Gal(b1-4)Glc
# How it was run: as §1
# Fuc(a1-2)Gal(b1-4)Glc6S = target: Fuc(a1-2)Gal(b1-4)Glc6S
# How it was run: as §1
# Fuc(a1-2)Gal(b1-4)GlcNAc = target: Fuc(a1-2)Gal(b1-4)GlcNAc
# How it was run: as §1
# [19] = target: Fuc(a1-2)Gal(b1-4)GlcNAc(b1-2)Man
# How it was run: as §1
# [20] = target: Fuc(a1-2)Gal(b1-4)GlcNAc(b1-2)Man(a1-3)[Fuc(a1-2)Gal(b1-4)GlcNAc(b1-2)Man(a1-6)]Man(b1-4)GlcNAc(b1-4)GlcNAc
# How it was run: as §1
# [21] = target: Fuc(a1-2)Gal(b1-4)GlcNAc(b1-2)Man(a1-3)[Fuc(a1-2)Gal(b1-4)GlcNAc(b1-2)Man(a1-6)]Man(b1-4)GlcNAc(b1-4)[Fuc(a1-6)]GlcNAc
# How it was run: as §1
# [22] = target: Fuc(a1-2)Gal(b1-4)GlcNAc(b1-2)[Fuc(a1-2)Gal(b1-4)GlcNAc(b1-4)]Man(a1-3)[Fuc(a1-2)Gal(b1-4)GlcNAc(b1-2)Man(a1-6)]Man(b1-4)GlcNAc(b1-4)GlcNAc
# How it was run: as §1
# [23] = target: Fuc(a1-2)Gal(b1-4)GlcNAc(b1-3)Gal(b1-4)GlcNAc
# How it was run: as §1
# [24] = target: Fuc(a1-2)Gal(b1-4)GlcNAc(b1-3)Gal(b1-4)GlcNAc(b1-2)Man(a1-3)[Fuc(a1-2)Gal(b1-4)GlcNAc(b1-3)Gal(b1-4)GlcNAc(b1-2)Man(a1-6)]Man(b1-4)GlcNAc(b1-4)GlcNAc
# How it was run: as §1
# [25] = target: Fuc(a1-2)Gal(b1-4)GlcNAc(b1-3)Gal(b1-4)GlcNAc(b1-3)Gal(b1-4)GlcNAc
# How it was run: as §1
# [26] = target: Fuc(a1-2)Gal(b1-4)GlcNAc(b1-3)GalNAc
# How it was run: as §1
# [27] = target: Fuc(a1-2)Gal(b1-4)GlcNAc(b1-3)[Fuc(a1-2)Gal(b1-4)GlcNAc(b1-6)]GalNAc
# How it was run: as §1
# [28] = target: Fuc(a1-2)Gal(b1-4)GlcNAc(b1-3)[Fuc(a1-3)[Gal(b1-4)]GlcNAc(b1-6)]Gal(b1-4)Glc
# How it was run: as §1
# [29] = target: Fuc(a1-2)Gal(b1-4)GlcNAc(b1-6)GalNAc
# How it was run: as §1
# [30] = target: Fuc(a1-2)Gal(b1-4)GlcNAc6S
# How it was run: as §1
# [31] = target: Fuc(a1-2)Gal(b1-4)[Fuc(a1-3)]GlcNAc
# How it was run: as §1
# [32] = target: Fuc(a1-2)Gal(b1-4)[Fuc(a1-3)]GlcNAc(b1-2)Man(a1-3)[Fuc(a1-2)Gal(b1-4)[Fuc(a1-3)]GlcNAc(b1-2)Man(a1-6)]Man(b1-4)GlcNAc(b1-4)[Fuc(a1-6)]GlcNAc
# How it was run: as §1
# [33] = target: Fuc(a1-2)Gal(b1-4)[Fuc(a1-3)]GlcNAc(b1-2)[Fuc(a1-2)Gal(b1-4)[Fuc(a1-3)]GlcNAc(b1-4)]Man(a1-3)[Fuc(a1-2)Gal(b1-4)[Fuc(a1-3)]GlcNAc(b1-2)Man(a1-6)]Man(b1-4)GlcNAc(b1-4)GlcNAc
# How it was run: as §1
# [34] = target: Fuc(a1-2)Gal(b1-4)[Fuc(a1-3)]GlcNAc(b1-3)Gal(b1-4)[Fuc(a1-3)]GlcNAc
# How it was run: as §1
# [35] = target: Fuc(a1-2)Gal(b1-4)[Fuc(a1-3)]GlcNAc(b1-3)Gal(b1-4)[Fuc(a1-3)]GlcNAc(b1-3)Gal(b1-4)[Fuc(a1-3)]GlcNAc
# How it was run: as §1
# [36] = target: Fuc(a1-2)Gal(b1-4)[Fuc(a1-3)]GlcNAc(b1-3)GalNAc
# How it was run: as §1
# [37] = target: Fuc(a1-2)Gal(b1-4)[Fuc(a1-3)]GlcNAc(b1-3)[Neu5Ac(a2-6)Gal(b1-4)GlcNAc(b1-6)]Gal(b1-4)Glc
# How it was run: as §1
# [38] = target: Fuc(a1-2)Gal3S(b1-4)GlcNAc
# How it was run: as §1
# [39] = target: Fuc(a1-2)Gal6S(b1-3)GlcNAc
# How it was run: as §1
binder,measurement,setting,value
PfulAvr4 2 (Pseudocercospora fuligena) (protein) HHHHHHDYKDDDDKAKPIKPFACPPKDFTTTKCQGPVDCLYANPLSCLGYIQCVCDDDACSTATPYAKSCPTGLAWVEKLKRCDGIKKSACPKKMYEGS,glycan array binding signal (z-score),Fuc(a1-2)Gal,0.036
same,glycan array binding signal (z-score),Fuc(a1-2)Gal(b1-3)GalNAc,-0.34
same,glycan array binding signal (z-score),[1],-0.383
same,glycan array binding signal (z-score),[2],-0.267
same,glycan array binding signal (z-score),[3],0.018
same,glycan array binding signal (z-score),[4],0.285
same,glycan array binding signal (z-score),[5],-0.339
same,glycan array binding signal (z-score),Fuc(a1-2)Gal(b1-3)GlcNAc,-0.301
same,glycan array binding signal (z-score),[6],1.82
same,glycan array binding signal (z-score),[7],1.04
same,glycan array binding signal (z-score),[8],-0.327
same,glycan array binding signal (z-score),[9],-0.211
same,glycan array binding signal (z-score),[10],0.112
same,glycan array binding signal (z-score),[11],-0.337
same,glycan array binding signal (z-score),[12],-0.387
same,glycan array binding signal (z-score),[13],-0.278
same,glycan array binding signal (z-score),[14],-0.222
same,glycan array binding signal (z-score),[15],1.91
same,glycan array binding signal (z-score),[16],-0.058
same,glycan array binding signal (z-score),[17],-0.264
same,glycan array binding signal (z-score),[18],-0.357
same,glycan array binding signal (z-score),Fuc(a1-2)Gal(b1-4)Glc,0.315
same,glycan array binding signal (z-score),Fuc(a1-2)Gal(b1-4)Glc6S,0.893
same,glycan array binding signal (z-score),Fuc(a1-2)Gal(b1-4)GlcNAc,-0.098
same,glycan array binding signal (z-score),[19],1.45
same,glycan array binding signal (z-score),[20],-0.155
same,glycan array binding signal (z-score),[21],2.88
same,glycan array binding signal (z-score),[22],0.781
same,glycan array binding signal (z-score),[23],-0.271
same,glycan array binding signal (z-score),[24],0.624
same,glycan array binding signal (z-score),[25],-0.123
same,glycan array binding signal (z-score),[26],0.36
same,glycan array binding signal (z-score),[27],-0.239
same,glycan array binding signal (z-score),[28],-0.327
same,glycan array binding signal (z-score),[29],0.04
same,glycan array binding signal (z-score),[30],-0.143
same,glycan array binding signal (z-score),[31],-0.325
same,glycan array binding signal (z-score),[32],-0.242
same,glycan array binding signal (z-score),[33],4.77
same,glycan array binding signal (z-score),[34],-0.355
same,glycan array binding signal (z-score),[35],-0.228
same,glycan array binding signal (z-score),[36],-0.346
same,glycan array binding signal (z-score),[37],-0.41
same,glycan array binding signal (z-score),[38],-0.337
same,glycan array binding signal (z-score),[39],-0.095
